Data on 3 molecules can be found in article PMC11109945.

Amino acid sequences for entries named in this document (tags omitted). A change or cut given only in a name is not applied to a line headed by its entry. Chains listed by the source or under a name are the forms on record and can include a tag or linker.
UniProt Q04206: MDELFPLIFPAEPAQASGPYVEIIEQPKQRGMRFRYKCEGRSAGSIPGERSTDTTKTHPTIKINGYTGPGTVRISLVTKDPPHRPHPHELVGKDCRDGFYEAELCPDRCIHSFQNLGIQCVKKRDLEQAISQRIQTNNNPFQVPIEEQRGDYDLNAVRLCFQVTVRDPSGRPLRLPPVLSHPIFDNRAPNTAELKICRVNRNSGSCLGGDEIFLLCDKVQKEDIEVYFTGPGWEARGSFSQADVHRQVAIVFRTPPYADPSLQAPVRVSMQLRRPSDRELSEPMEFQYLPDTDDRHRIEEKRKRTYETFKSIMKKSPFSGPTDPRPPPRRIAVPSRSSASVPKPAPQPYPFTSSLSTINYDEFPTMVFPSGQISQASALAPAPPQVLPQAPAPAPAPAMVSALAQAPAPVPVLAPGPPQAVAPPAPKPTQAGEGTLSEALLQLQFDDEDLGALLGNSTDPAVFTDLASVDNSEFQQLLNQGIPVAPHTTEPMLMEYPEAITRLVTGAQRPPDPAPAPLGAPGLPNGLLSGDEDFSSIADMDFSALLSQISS
T7-RelA-K314/315R (Q04206, form named): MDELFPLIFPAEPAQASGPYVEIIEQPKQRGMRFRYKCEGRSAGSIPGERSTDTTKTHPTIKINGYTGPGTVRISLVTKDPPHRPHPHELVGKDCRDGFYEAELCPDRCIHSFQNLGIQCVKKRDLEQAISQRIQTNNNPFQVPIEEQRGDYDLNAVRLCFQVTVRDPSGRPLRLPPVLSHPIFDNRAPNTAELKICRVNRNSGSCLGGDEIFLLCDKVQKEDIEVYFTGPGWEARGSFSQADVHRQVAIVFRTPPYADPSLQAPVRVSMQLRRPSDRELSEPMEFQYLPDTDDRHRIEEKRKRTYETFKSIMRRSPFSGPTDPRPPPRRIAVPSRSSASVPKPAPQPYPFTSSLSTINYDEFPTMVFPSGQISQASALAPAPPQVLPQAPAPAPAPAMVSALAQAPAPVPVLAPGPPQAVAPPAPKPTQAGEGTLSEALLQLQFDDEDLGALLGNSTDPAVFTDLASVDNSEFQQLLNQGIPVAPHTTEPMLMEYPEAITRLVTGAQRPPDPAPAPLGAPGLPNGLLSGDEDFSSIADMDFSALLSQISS

These are yes or no findings as the source states them, for the method shown. For part of these data: Binding seen in cells or lysates may run through a third protein. Some binding calls cover weakened binding; strength is not graded here. Sequences can lack the tags named with a protein.

Assay [1] addresses T1, GST-WSB1 (full-length) (human) (UniProt Q9Y6I7).
T1 sequence: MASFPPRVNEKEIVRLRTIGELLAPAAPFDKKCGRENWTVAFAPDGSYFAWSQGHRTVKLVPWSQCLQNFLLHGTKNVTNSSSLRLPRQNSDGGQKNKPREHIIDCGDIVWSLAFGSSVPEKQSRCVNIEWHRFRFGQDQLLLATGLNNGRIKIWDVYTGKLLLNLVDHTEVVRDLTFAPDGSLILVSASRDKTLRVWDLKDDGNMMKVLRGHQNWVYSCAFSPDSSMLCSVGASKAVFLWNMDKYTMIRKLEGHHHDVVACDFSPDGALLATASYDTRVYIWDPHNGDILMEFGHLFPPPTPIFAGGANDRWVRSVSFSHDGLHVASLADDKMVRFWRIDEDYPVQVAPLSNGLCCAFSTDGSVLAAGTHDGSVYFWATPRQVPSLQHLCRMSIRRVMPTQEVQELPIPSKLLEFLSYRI
Put plainly: pull-down; 1 ug beads-bound GST fusion protein and 50 ul HEK293T whole cell lysate in 500 ul lysis buffer, rotation at 4°C for 1 h; immunoblot with anti-T7; only the target purified. (A western blot detects proteins with antibodies after separation by electrophoresis.)

The target in assay [2] is T2, GST-WSB2 (full-length) (human) (UniProt Q9NYS7).
T2 sequence: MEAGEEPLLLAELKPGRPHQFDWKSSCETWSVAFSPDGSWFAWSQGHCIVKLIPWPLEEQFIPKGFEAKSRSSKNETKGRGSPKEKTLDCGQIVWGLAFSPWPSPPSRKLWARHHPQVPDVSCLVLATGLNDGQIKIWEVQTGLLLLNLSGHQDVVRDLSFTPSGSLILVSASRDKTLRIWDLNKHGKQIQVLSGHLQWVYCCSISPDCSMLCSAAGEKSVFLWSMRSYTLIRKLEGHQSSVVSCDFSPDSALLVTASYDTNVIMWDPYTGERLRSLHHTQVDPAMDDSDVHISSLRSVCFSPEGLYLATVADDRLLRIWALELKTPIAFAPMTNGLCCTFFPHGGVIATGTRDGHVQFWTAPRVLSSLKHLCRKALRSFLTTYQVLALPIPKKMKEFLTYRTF
The assay is described as above.

Assay [3] concerns the target T1, GST-WSB1 (full-length) (human). The assay can be described thus: pull-down; as a1, with 100-fold molar excess of RelA peptide added before pull-down (peptide competition); the pair that is blocked; only the target purified.
Assay [4] concerns the target T2, GST-WSB2 (full-length) (human). The assay is described as above.
The next assay concerns the target T3, GST-WSB2-E28A (human) (UniProt Q9NYS7).
T3 sequence: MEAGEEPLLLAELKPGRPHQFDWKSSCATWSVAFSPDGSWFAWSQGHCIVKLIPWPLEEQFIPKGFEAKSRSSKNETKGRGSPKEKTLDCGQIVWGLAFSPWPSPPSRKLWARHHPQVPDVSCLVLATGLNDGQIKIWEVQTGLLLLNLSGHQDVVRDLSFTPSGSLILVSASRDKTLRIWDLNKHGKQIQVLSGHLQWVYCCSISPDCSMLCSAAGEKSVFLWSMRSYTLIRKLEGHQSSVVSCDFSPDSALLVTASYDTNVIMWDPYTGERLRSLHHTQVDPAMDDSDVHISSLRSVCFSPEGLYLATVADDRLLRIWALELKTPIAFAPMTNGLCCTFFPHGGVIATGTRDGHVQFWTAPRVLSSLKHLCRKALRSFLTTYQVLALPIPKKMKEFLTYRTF
The assay can be described thus: pull-down; 1 ug beads-bound GST fusion protein and 50 ul HEK293T whole cell lysate in 500 ul lysis buffer, rotation at 4°C for 1 h; immunoblot with anti-T7; only the target purified.

In assay [5] the target is T1, GST-WSB1 (full-length) (human). Put plainly: pull-down; peptide competition: 100-fold molar excess of synthetic RelA peptide against T7-RelA of the lysate for beads-bound GST-WSB1 or GST-WSB2; peptide and GST fusion; both purified.
In assay [6] the target is T2, GST-WSB2 (full-length) (human). Described as above.

As for “T7-RelA-K314/315R (from UniProt Q04206 1-551)”, the binding result in assay [1] and in assay [2] was “no binding” throughout.

Regarding “T7-tagged WT RelA, K314/315-methylated by co-transfected Flag-Set9 (from UniProt Q04206 1-551)”, the binding result (in assay [3]; in assay [4]; in assay [1]; in assay [2]; in the assay with GST-WSB2-E28A (human)) was “binds” in each case.

B1: K314/315 monomethylated RelA peptide KSIMK[me1]K[me1]SPFS (competition assay) (peptide)
peptide: KSIMKKSPFS
modifications: monomethyl-lysine at K314 and K315 (K[me1]K[me1])
Regarding B1, the binding result in assay [5] and in assay [6] was “binds” throughout.
